Assay results taken from PMC4336329 (PLoS ONE, 2015).
The campaign covered roughly 310,000 compounds. About 2,200 (0.71%) showed an effect of 50% or more. The effect is printed as a negative number. The list shows a part of the results.

molecular target: human ether-à-go-go-related gene (hERG) potassium channel (human, UniProt Q12809); assay: primary screen, population patch clamp on CHO cells stably expressing hERG
Sequence (Q12809 whole entry, looked up): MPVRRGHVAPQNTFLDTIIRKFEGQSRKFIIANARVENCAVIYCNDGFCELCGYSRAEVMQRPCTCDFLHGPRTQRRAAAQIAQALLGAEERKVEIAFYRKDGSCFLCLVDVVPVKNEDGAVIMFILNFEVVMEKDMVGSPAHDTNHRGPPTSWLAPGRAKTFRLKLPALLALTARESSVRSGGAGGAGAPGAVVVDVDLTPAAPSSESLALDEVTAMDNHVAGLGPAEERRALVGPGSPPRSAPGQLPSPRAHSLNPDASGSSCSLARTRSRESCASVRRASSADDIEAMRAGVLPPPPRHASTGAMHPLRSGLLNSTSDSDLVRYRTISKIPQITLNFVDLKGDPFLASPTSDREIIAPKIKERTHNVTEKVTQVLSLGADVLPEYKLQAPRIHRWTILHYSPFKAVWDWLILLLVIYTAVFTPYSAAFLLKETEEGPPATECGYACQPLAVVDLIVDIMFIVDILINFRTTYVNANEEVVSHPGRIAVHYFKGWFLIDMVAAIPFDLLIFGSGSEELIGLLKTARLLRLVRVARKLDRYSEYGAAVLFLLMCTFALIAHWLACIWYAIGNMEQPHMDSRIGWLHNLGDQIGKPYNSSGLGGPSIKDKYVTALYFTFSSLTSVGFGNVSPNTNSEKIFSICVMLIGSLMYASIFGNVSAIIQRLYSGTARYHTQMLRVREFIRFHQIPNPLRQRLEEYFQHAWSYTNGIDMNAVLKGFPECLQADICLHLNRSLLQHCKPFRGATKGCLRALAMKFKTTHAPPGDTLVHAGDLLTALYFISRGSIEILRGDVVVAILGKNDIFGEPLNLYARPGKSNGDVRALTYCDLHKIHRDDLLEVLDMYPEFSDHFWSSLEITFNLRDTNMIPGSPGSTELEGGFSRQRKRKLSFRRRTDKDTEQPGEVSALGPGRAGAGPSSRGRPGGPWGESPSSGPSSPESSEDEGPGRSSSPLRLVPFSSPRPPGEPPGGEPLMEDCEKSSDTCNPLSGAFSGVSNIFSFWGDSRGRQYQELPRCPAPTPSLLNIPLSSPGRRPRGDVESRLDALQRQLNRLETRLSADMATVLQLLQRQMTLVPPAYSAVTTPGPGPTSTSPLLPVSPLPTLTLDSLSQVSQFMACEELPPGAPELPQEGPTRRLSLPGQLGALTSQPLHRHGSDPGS

Structure (SMILES) | hERG current change (%, negative = inhibition) at 1uM [%]
O=c1cc(-c2cccc(Br)c2)oc2cccc(O)c12 | 15.9
C#CCOC(=O)C(NC(=O)c1ccccc1)=C1CCCCC1 | -4.89
O=C(c1cccs1)N1CCN(Cc2ccccc2)CC1 | 8.83
CCn1c(SCC(=O)N2CCC(C)CC2)nc2c1c(=O)n(C)c(=O)n2C | 8.87
COC(=O)c1ccc(OC)c(CSc2nnc(COc3ccccc3)o2)c1 | -19
NNc1ccc(Cl)c(C(=O)O)c1 | 10.6
Cl.OCCCCNCc1cc(Br)ccc1OCc1ccccc1F | 4.37
Cn1nccc1C(=O)Nc1nnc(C2CC2)s1 | -2.12
O=C1NC(=O)N(Cc2ccccc2)C(=O)/C1=C/C=C/c1ccco1 | 7.07
COCc1cc(=O)n2[nH]c(C)c(-c3ccccc3)c2n1 | 13.1
Cc1ccc(/C=C2\C(=O)NC(=O)N2C)o1 | 4.31
CCc1ccc(NC(=O)CSc2nc3cc(C(=O)OC)ccc3c(=O)n2Cc2ccco2)cc1 | -0.869
COc1ccc(-n2ccn3c(CCC(=O)N4CCN(c5cccc(C)c5C)CC4)nnc3c2=O)cc1 | 15.1
CCN(CC(=O)Nc1c(F)cccc1F)C(=O)c1ccc(Sc2nncn2C)c([N+](=O)[O-])c1 | 12.9
Cc1cc(C)c2nc(NNC(=O)c3cc(-c4cccs4)nc4ccccc34)sc2c1 | 11.6
c1ccc(Cc2nnc3n2CCCCC3)cc1 | 12.5
CC(=O)c1cnc2ncnn2c1C | 7.75
COc1ccc(OC)c(S(=O)(=O)N2CCN(c3c(C)cccc3C)CC2)c1 | 5.85
Cc1cc(C)c(OCCCCCNCCO)c(C)c1 | 6.3
COc1ccc2cc(CN(CC3CCCO3)S(=O)(=O)c3ccccc3Cl)c(=O)[nH]c2c1 (centres unmarked) | 2.29

Structure (SMILES) | hERG current change (%, negative = inhibition) at 1uM [%]
CC(NCC(=O)NCCc1ccc(S(N)(=O)=O)cc1)c1ccc(F)cc1 (centres unmarked) | 15.1
COc1ccccc1N1CCN(C(=O)CCC(=O)Nc2nnc(CC(C)C)s2)CC1 | 2.88
Cn1nc(C(C)(C)C)c(NC(=O)c2cccs2)c1C(C)(C)C | 12.4
O=C(Nc1ccn(C2CC(OC(=O)c3ccccc3)C(CO)O2)c(=O)n1)c1ccccc1 (centres unmarked) | 12.5
CCSc1nsc(NC(=O)Nc2cccc(F)c2)n1 | 12
COc1ccc(N(CC(=O)NC2CCCC2)C(=O)c2csnn2)cc1 | -9.36
CS(=O)(=O)c1cnc(-c2ccccc2)nc1Oc1ccc(Cl)cc1 | 11.3
O=C(Nc1cccc(C(F)(F)F)c1)n1cc(-c2ccccn2)c(N2CCOCC2)n1 | 4.16
CCn1c(CNC(=O)c2ccccc2Br)nnc1SCC(=O)Nc1nncs1 | 7.59
CCCCNC(=O)COC(=O)c1ccccc1F | 4.01
Cc1cccc(N/N=C/c2c(O)[nH]c(=S)[nH]c2=O)c1 | 11.6
Cc1ccccc1C(=O)NC(=S)Nc1ccc(N2CCN(C(=O)c3ccccc3)CC2)cc1 | 7.72
COc1ccc(CNC(=O)c2c(C)nc3ccccn23)cc1 | -9.68
O=C(OCC(=O)c1ccccc1Br)c1ccncc1 | 9.42
COc1cc(C=Nc2cccc(C)c2)c(O)c([N+](=O)[O-])c1 | 12
CC(=O)c1c(NCc2ccccc2)nc(=O)n(-c2ccccc2)c1C | 4.06
N#Cc1ccc(OCCN2C(=O)NC3(CCSC3)C2=O)cc1 (centres unmarked) | -23.3
CC(C)N1CCN(c2ccc(S(=O)(=O)N3CCOCC3)cn2)CC1 | 12.2
COc1ccc(-n2c(C)c(C(C)=O)c(C(C)=O)c2C)cc1OC | 9.99
Cc1ccc(CN(C)C2CCN(C)CC2)cc1 | 7.88

Structure (SMILES) | hERG current change (%, negative = inhibition) at 1uM [%]
CNc1ccccc1C(=O)OCC(=O)N1CCN(c2ccc(OC)cc2)CC1 | 13.2
CC1CCCCC1NC(=O)CCS(=O)(=O)c1ccc2c(c1)NC(=O)CO2 (centres unmarked) | 15.9
COc1ccc(OC)c(CN2CCN(C(=O)[C@@H](NC(=O)c3cccc(C)c3)C(C)C)CC2)c1 | 7.46
CC(C)c1cccc(OCC(=O)Nc2ccc(S(=O)(=O)Nc3ccccn3)cc2)c1 | 24.2
Cc1nc(CNS(=O)(=O)c2cccs2)cs1 | 14.5
CC(C)c1nc(CNC(=O)CC2C(=O)NCCN2Cc2ccc(F)cc2Cl)cs1 (centres unmarked) | 6.26
COc1ccc(/C=N/NC(=O)c2ccc3nc[nH]c3c2)cc1OC | 16.7
Nc1cccc(-n2nnnc2CN2CCOCC2)c1 | 7.84
CC(NS(=O)(=O)c1ccc(Br)cc1)C(c1cccs1)N1CCOCC1 (centres unmarked) | 2.31
CCC(=O)N(Cc1cc2cc(OC)ccc2[nH]c1=O)c1ccc(C)cc1C | -6.17
COc1ccc(CN2CCN(Cc3cc4ccccc4o3)CC2CCO)cc1C (centres unmarked) | -1.29
CC(C)c1ccc(NC(=O)CSc2nc(=O)n(CCN3CCOCC3)c3c2CCC3)cc1 | -8.26
Cc1cc(=O)[nH]c(SCc2nc3ccccc3s2)n1 | 6.67
COc1ccc(NC(=S)NCCc2c[nH]c3ccccc23)cc1 | 6.94
O=C(CN1C(=O)c2ccccc2C1=O)Nc1ccccc1C(F)(F)F | 7.93
CN(C)S(=O)(=O)N1C(=O)c2ccccc2C1=O | 20.8
CC1(CCc2ccccc2)NC(=O)N(Cc2cc([N+](=O)[O-])cc3c2OCOC3)C1=O (centres unmarked) | 8.5
O=C(Cc1ccccc1)n1nc(-c2ccco2)nc1SCc1ccccc1 | 2.06
COC(=O)CSc1nnc(-c2ccc(S(=O)(=O)N3CCC(C)CC3)cc2)o1 | 11.5
